Data published in US20240141014A1 (SHATTUCK LABS, published 2024).

Experiments:
PD-L1 protein [1] = target: T1, PD-L1 protein (UniProt Q9NZQ7 part only, limits assumed); test: BLI (Octet, ForteBio), biotinylated hPD-L1 loaded on the biosensor (Loading Sample ID: hPDL1-biotin; Acro-Biotin); Full R^2 0.9715
T1 construct: also called recombinant PD-L1

PD-L1 protein [2] = target: T1, PD-L1 protein; test: BLI (Octet, ForteBio), biotinylated hPD-L1 loaded on the biosensor (Loading Sample ID: hPDL1-biotin; Acro-Biotin); kdis(1/s); Full R^2 0.9715
T1 sequence (Q9NZQ7 19-238 limits assumed): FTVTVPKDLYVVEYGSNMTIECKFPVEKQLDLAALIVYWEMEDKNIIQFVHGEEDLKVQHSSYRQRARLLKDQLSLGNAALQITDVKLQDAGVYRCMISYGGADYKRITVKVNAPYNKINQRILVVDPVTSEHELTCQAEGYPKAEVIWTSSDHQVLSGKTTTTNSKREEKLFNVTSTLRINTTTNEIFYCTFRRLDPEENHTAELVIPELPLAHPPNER

B1: PD-1(S87C)-Fc fusion protein (Fc fusion)
chain: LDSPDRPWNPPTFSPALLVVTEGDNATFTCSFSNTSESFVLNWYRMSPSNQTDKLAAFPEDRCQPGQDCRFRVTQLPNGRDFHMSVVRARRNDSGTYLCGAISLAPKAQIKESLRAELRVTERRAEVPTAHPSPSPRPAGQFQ
notes: also called G3; not shown: Fc domain and any joining linker of the tested construct are not specified
**Q.** How did the Kd (PD-L1 protein [1]) turn out when B1 was run?
**A.** 90.4 nM

**Q.** And the kon (PD-L1 protein [1])?
**A.** 124000 M⁻¹ s⁻¹

**Q.** And the koff (PD-L1 protein [2])?
**A.** 0.0112 s⁻¹
